Laboratory results reported in the supplement of paper PMC4967469.
IC50 is the fitted dose that halves viability relative to control wells, and lower means more sensitive; where the fit passes the top or lowest dose, that dose stands as a limit. AUC is the area under the same curve over the 256-fold range up to the top dose, as a fraction; values near 1 show little effect. For part of these data: The top dose, if marked as inferred, is not printed in the source and was worked back from the curve model.

Columns and labels:
Assay in all cases: Viability of human cancer cell lines after 72 h of drug (GDSC screen)
AV-951 = compound: COc1cc2nccc(Oc3ccc(NC(=O)Nc4cc(C)on4)c(Cl)c3)c2cc1OC [AV-951]; conditions: top dose 0.128 µM; top dose inferred
Experimental: (§1)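 Human cancer cell lines in 384-well plates, medium with 10% serum, drug for 72 h over a 256-fold dose range (nine 2-fold or five 4-fold steps up to the top dose). Adherent lines were fixed and stained with the nucleic acid dye Syto60, suspension lines read with resazurin; signal relative to control wells, capped at 0 and 100%. One two-parameter sigmoid per drug and line, fitted in a mixed model over all curves with the slope shared within a line.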

Trametinib = compound: CC(=O)Nc1cccc(-n2c(=O)n(C3CC3)c(=O)c3c(Nc4ccc(I)cc4F)n(C)c(=O)c(C)c32)c1 [Trametinib]; conditions: top dose 1 µM
Experimental: as §1

PF-4708671 = compound: CCc1cncnc1N1CCN(Cc2nc3ccc(C(F)(F)F)cc3[nH]2)CC1 [PF-4708671]; conditions: top dose 10 µM; top dose inferred
Experimental: as §1

KIN001-244 = compound: O=C(NC(COc1ccc2[nH]c(=O)[nH]c2c1)c1ccccc1)c1cccn(Cc2ccc(F)c(F)c2)c1=O [KIN001-244]; conditions: top dose 20 µM; top dose inferred
Experimental: as §1

HG-6-64-1 = compound: CCN1CCN(Cc2ccc(NC(=O)c3ccc(C)c(/C=C/c4cnc5[nH]ccc5c4OC)c3)cc2C(F)(F)F)CC1 [HG-6-64-1]; conditions: top dose 5.12 µM; top dose inferred
Experimental: as §1

I-BET-762 = compound: CCNC(=O)C[C@@H]1N=C(c2ccc(Cl)cc2)c2cc(OC)ccc2-n2c(C)nnc21 [I-BET-762]; conditions: top dose 20 µM; top dose inferred
Experimental: as §1

Cell Line | AUC (AV-951) | IC50 (AV-951) | AUC (Trametinib) | IC50 (Trametinib) | AUC (PF-4708671) | IC50 (PF-4708671) | AUC (KIN001-244) | IC50 (KIN001-244) | AUC (HG-6-64-1) | IC50 (HG-6-64-1) | AUC (I-BET-762) | IC50 (I-BET-762)
KLE (endometrium, adherent) | 0.967 | > 0.128 µM | 0.938 | > 1 µM | 0.91 | > 10 µM | 0.794 | 15.9 µM | 0.743 | 2.41 µM | 0.841 | > 20 µM
KMH-2 (thyroid, adherent) | 0.989 | > 0.128 µM | 0.068 | < 0.00391 µM | 0.973 | > 10 µM | 0.953 | > 20 µM | 0.821 | 2.55 µM | 0.99 | > 20 µM
KMRC-20 (kidney, adherent) | 0.989 | > 0.128 µM | 0.879 | > 1 µM | 0.982 | > 10 µM | 0.981 | > 20 µM | 0.793 | 2.39 µM | 0.989 | > 20 µM
KON (head and neck, adherent) | 0.984 | > 0.128 µM | 0.551 | 0.0856 µM | 0.982 | > 10 µM | 0.98 | > 20 µM | 0.524 | 0.372 µM | 0.987 | > 20 µM
KOSC-2 (head and neck, adherent) | 0.98 | > 0.128 µM | 0.578 | 0.103 µM | 0.943 | > 10 µM | 0.963 | > 20 µM | 0.667 | 0.952 µM | 0.94 | > 20 µM
KP-2 (pancreas, adherent) | 0.985 | > 0.128 µM | 0.257 | 0.0118 µM | 0.981 | > 10 µM | 0.908 | > 20 µM | 0.876 | > 5.12 µM | 0.97 | > 20 µM
KP-3 (pancreas, adherent) | 0.976 | > 0.128 µM | 0.807 | 0.637 µM | 0.974 | > 10 µM | 0.901 | > 20 µM | 0.718 | 1.51 µM | 0.936 | > 20 µM
KP-4 (pancreas, adherent) | 0.915 | > 0.128 µM | 0.814 | 0.515 µM | 0.946 | > 10 µM | 0.96 | > 20 µM | 0.859 | 3.96 µM | 0.988 | > 20 µM
KU-19-19 (bladder, adherent) | 0.987 | > 0.128 µM | 0.064 | < 0.00391 µM | 0.921 | > 10 µM | 0.987 | > 20 µM | 0.949 | > 5.12 µM | 0.987 | > 20 µM
KYSE-50 (oesophagus, adherent) | 0.986 | > 0.128 µM | 0.916 | > 1 µM | 0.828 | 5.45 µM | 0.913 | > 20 µM | 0.502 | 0.324 µM | 0.914 | > 20 µM
KYSE-70 (oesophagus, adherent) | 0.986 | > 0.128 µM | 0.895 | > 1 µM | 0.985 | > 10 µM | 0.92 | > 20 µM | 0.615 | 0.683 µM | 0.953 | > 20 µM
KYSE-150 (oesophagus, adherent) | 0.989 | > 0.128 µM | 0.91 | > 1 µM | 0.945 | > 10 µM | 0.916 | > 20 µM | 0.604 | 0.609 µM | 0.957 | > 20 µM
KYSE-180 (oesophagus, adherent) | 0.988 | > 0.128 µM | 0.923 | > 1 µM | 0.988 | > 10 µM | 0.885 | > 20 µM | 0.531 | 0.387 µM | 0.912 | > 20 µM
KYSE-220 (oesophagus, adherent) | 0.982 | > 0.128 µM | 0.364 | 0.0258 µM | 0.95 | > 10 µM | 0.911 | > 20 µM | 0.797 | 2.57 µM | 0.948 | > 20 µM
KYSE-270 (oesophagus, adherent) | 0.991 | > 0.128 µM | 0.928 | > 1 µM | 0.991 | > 10 µM | 0.859 | 12.9 µM | 0.707 | 1.11 µM | 0.937 | > 20 µM
KYSE-450 (oesophagus, adherent) | 0.977 | > 0.128 µM | 0.734 | 0.277 µM | 0.988 | > 10 µM | 0.89 | > 20 µM | 0.597 | 0.582 µM | 0.75 | 6.2 µM
KYSE-510 (oesophagus, adherent) | 0.992 | > 0.128 µM | 0.919 | > 1 µM | 0.975 | > 10 µM | 0.953 | > 20 µM | 0.726 | 1.22 µM | 0.961 | > 20 µM
LC-1-sq (lung squamous cell carcinoma, adherent) | 0.981 | > 0.128 µM | 0.764 | 0.424 µM | 0.936 | > 10 µM | 0.952 | > 20 µM | 0.985 | > 5.12 µM | 0.847 | 18.7 µM
LCLC-97TM1 (large cell lung carcinoma, adherent) | 0.976 | > 0.128 µM | 0.212 | 0.00803 µM | 0.967 | > 10 µM | 0.762 | 7.8 µM | 0.686 | 1.12 µM | 0.845 | 16.6 µM
LCLC-103H (large cell lung carcinoma, adherent) | 0.972 | > 0.128 µM | 0.99 | > 1 µM | 0.975 | > 10 µM | 0.894 | > 20 µM | 0.579 | 0.516 µM | 0.947 | > 20 µM
LK-2 (lung squamous cell carcinoma, adherent) | 0.988 | > 0.128 µM | 0.86 | 0.759 µM | 0.961 | > 10 µM | 0.911 | > 20 µM | 0.858 | 3.82 µM | 0.886 | > 20 µM
LN-18 (glioma, adherent) | 0.994 | > 0.128 µM | 0.956 | > 1 µM | 0.994 | > 10 µM | 0.95 | > 20 µM | 0.649 | 0.756 µM | 0.994 | > 20 µM
